Source: the supplement of paper PMC4604168 (melanoma cell lines)
The other results are listed elsewhere or left out. Most values come without repeats; read them as rough.

System: IST-MEL1
Test: cell count relative to DMSO control; melanoma cells; higher = more viable cells
Details: library dose: low library concentration; 72 h
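Note: cell number obtained by counting DAPI-stained nuclei in high-throughput microscope images with image analysis software, screen run in 1,536-well plates.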

Row | SMILES | cell count [%]
1 | N#CC[C@H](C1CCCC1)n1cc(-c2ncnc3[nH]ccc23)cn1 [ruxolitinib] + Clc1ccc(Nc2nnc(Cc3ccncc3)c3ccccc23)cc1 [vatalanib] (first compound 1 µM, partner dose 2 µM) | 95.4
2 | N#CC[C@H](C1CCCC1)n1cc(-c2ncnc3[nH]ccc23)cn1 [ruxolitinib] + O=C(/C=C/c1cccnc1)NCCCCC1CCN(C(=O)c2ccccc2)CC1 [FK866] (first compound 1 µM, partner dose 0.01 µM) | 56
3 | Cc1cc(Nc2cc(N3CCN(C)CC3)nc(Sc3ccc(NC(=O)C4CC4)cc3)n2)n[nH]1 [Tozasertib] + CN(NC(=O)CC(=O)NN(C)C(=S)c1ccccc1)C(=S)c1ccccc1 [STA4783] (first compound 0.006 µM, partner dose 0.006 µM) | 74.7
4 | N#CC[C@H](C1CCCC1)n1cc(-c2ncnc3[nH]ccc23)cn1 [ruxolitinib] + CO[C@H]1C[C@@H]2CC[C@@H](C)[C@@](O)(O2)C(=O)C(=O)N2CCCC[C@H]2C(=O)O[C@H]([C@H](C)C[C@@H]2CC[C@@H](OCCO)[C@H](OC)C2)CC(=O)[C@H](C)/C=C(\C)[C@@H](O)[C@@H](OC)C(=O)[C@H](C)C[C@H](C)/C=C/C=C/C=C/1C [everolimus] (first compound 1 µM, partner dose 0.02 µM) | 82.5
5 | Cc1cc(Nc2cc(N3CCN(C)CC3)nc(Sc3ccc(NC(=O)C4CC4)cc3)n2)n[nH]1 [Tozasertib] + Cc1cc(Nc2cc(N3CCN(C)CC3)nc(/C=C/c3ccccc3)n2)n[nH]1 [ENMD2076] (first compound 0.006 µM, partner dose 0.04 µM) | 96.1
